The structures appear in SMILES notation. In all, about 50,000 compounds went through this assay and about 800 (1.6%) showed an effect of 50% or more. This is one part of the list.

The target of this test is Bcl-2-like protein 10 (Homo sapiens) (UniProt Q9HD36). Briefly: TR3 peptide-Bcl-B binding displacers, biochemical primary FP assay, phenotype converters (AID 1240).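 Also: 0% = Bcl-B with tracer peptide and DMSO and 100% = tracer peptide lacking Bcl-B.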 Particulars: GST-Bcl-B / FITC-TR3 peptide fluorescence polarization; stronger effect = higher value; compound at 3.75 mg/L. A general note: In fluorescence polarisation assays a small probe gives low polarisation when free and higher when bound to something large.
Chain of UniProt Q9HD36 (Q9HD36 whole entry, looked up): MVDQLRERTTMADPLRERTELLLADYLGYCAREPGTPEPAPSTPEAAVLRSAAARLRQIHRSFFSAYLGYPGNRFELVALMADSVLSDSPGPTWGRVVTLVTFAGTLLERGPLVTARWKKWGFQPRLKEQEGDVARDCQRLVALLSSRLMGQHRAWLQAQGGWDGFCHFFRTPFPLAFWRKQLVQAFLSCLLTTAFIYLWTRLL
In the case of `CCOc1ccccc1/C=N/NC(=O)c1ccccc1[N+](=O)[O-]`, the displacement was -6.5%.

For `CCOC(=O)C1C(=O)CC(C)(O)C(C(=O)OCC)C1c1ccc(OCC)cc1` (centres undefined), the displacement turned out to be 4.2%.

As to `CCc1ccc(NC(=O)CN(c2ccc(C)cc2)S(=O)(=O)c2ccccc2)cc1`, the displacement was -7.7%. With `Fc1ccccc1CSc1nc2ncccc2[nH]1`, the displacement was 12.5%. Under `Nc1ccc2nc(SCc3ccc([N+](=O)[O-])cc3)sc2c1` stands 4.6%; under `CCc1ccc(OCC(=O)Nc2cc(Cl)cc(Cl)c2)cc1`, 12.4%. Under `Cc1ccc(NC(=O)c2ccccc2NC(=O)c2cccs2)cc1` stands 4%; under `Cc1ccc(NC(NC=O)C(Cl)(Cl)Cl)c(C)c1` (centres undefined), -16%. With `FC(F)(F)COc1nc(N2CCOCC2)nc(N2CCN(c3ccccc3)CC2)n1`, the displacement was -6.5%. Then `CCOC(=O)c1c(NC(=O)c2cc(-c3ccc(C(C)C)cc3)nc3ccccc23)sc(C(N)=O)c1C`, with -11%. Then `CCOC(=O)COc1ccccc1/C=C1\C(=O)NN(c2ccccc2)C1=O`, with 3%; and `O=C(c1cccc(Br)c1)N1CCN(c2c(Cl)cccc2[N+](=O)[O-])CC1`, with 10.3%; and `O=C1C=C(Nc2ccc(Cl)cc2)C(=O)N1c1cccc(C(F)(F)F)c1`, with 10.3%. Consider `O=C(OCCc1ccc(SC(=O)c2ccccc2)s1)c1ccccc1`, for which the displacement turned out to be 15.9%. Then `Cc1ccc(/C=C2\C(=O)NN(c3ccc(Cl)c(Cl)c3)C2=O)s1`, with 1%; and `COc1ccc(N(CC(=O)O)S(=O)(=O)c2ccccc2)cc1`, with 8%.

In the case of `Cc1ccc(OCCNC(=O)CCc2ccccc2)cc1`, the displacement is -2.1%. Under `COc1ccccc1NC(=O)C1CCC(=O)N1` (centres undefined) stands 12.7%. Under `C(=C\c1nc2ccccc2nc1/C=C/c1ccccc1)/c1ccccc1` stands 15.6%; under `O=C1c2ccccc2NC(c2ccccc2[N+](=O)[O-])N1O` (centres undefined), -4.5%; under `O=C(/C=C/c1ccco1)Nc1ccc2c(c1)OCCO2`, 0.8%.

`COc1ccc(Nc2ncnc3[nH]ncc23)cc1`: the displacement was determined as 2.5%.

Take `CCCn1c(C(O)c2cccc(OC)c2)nc2ccccc21` (centres undefined): the displacement was -5.1%.

`COc1ccc(S(=O)(=O)N(CCc2ccccc2)CC(=O)NCc2ccc(Cl)cc2)cc1`: the displacement is -2.8%.

Consider `CCOc1ccc2nc(SC3CC(=O)N(c4ccccc4C)C3=O)sc2c1` (centres undefined), for which the displacement came out at 1.5%. Then `O=C(CSc1nc2ccccc2c(=O)n1-c1ccccc1)Nc1ccc(F)cc1`, with 11.3%.

For the compound `CCOC(=O)C1=C(O)/C(=C/c2ccc(O)c(OCC)c2)SC1=Nc1ccc([N+](=O)[O-])cc1`, the displacement is -5.5%. For `O=C1NC(=Nc2cccc(O)c2)CS1`, the displacement is -3.8%. Take `C#CCSc1nc2ccccc2n1C(=O)CCN1C(=O)c2cccc3cccc(c23)C1=O`: the displacement is -8%. Then `CC1(C)CC(=O)C=C(NNC(=O)CCc2ccccc2)C1`, with -8%; and `O=C(CC1Sc2ccccc2NC1=O)Nc1ccc([N+](=O)[O-])cc1` (centres undefined), with -8.1%.

In the case of `COc1ccc(N2CC(C(=O)N/N=C/c3cc(OC)ccc3OC)CC2=O)cc1` (centres undefined), the displacement is -10.9%.

In the case of `CCCOc1ccc(C(=O)Nc2ccc(NC(=O)c3ccco3)c(OC)c2)cc1`, the displacement was found to be 0%. Then `O=C(Cc1ccc(Br)cc1)Nc1ccc(F)c(F)c1`, with -3.7%. Under `CCOc1ccc(N2C(=O)/C(=C/c3ccc(OCc4ccc(C(=O)O)cc4)c(OC)c3)C(=O)NC2=S)cc1` stands -4.8%; under `COc1ccc(Br)cc1Cn1c(=O)[nH]c2cc(C(F)(F)F)ccc21`, -5.6%; under `COC(=O)COc1ccc(/C=C2\C(=O)NC(=O)N(c3ccc(F)cc3)C2=O)cc1OC`, -12.7%. As for `Cc1cc(C)cc(CC2CC(=O)N(c3ccc(I)cc3)C2=O)c1` (centres undefined), the displacement amounted to 10.6%. Regarding `COc1ccc(C(C)N(C)CCC(c2ccccc2)c2ccccc2)cc1OC` (centres undefined), the displacement is 5.7%.

Consider `COc1cc(C(=O)Nc2nnc(CC(=O)NCc3ccccc3)s2)cc(OC)c1OC`, for which the displacement was -14%. Then `O=C(/C=C/NNC(=O)c1cccnc1)c1ccc(Cl)cc1`, with -8.2%; and `CN(Cc1ccccc1)C(=O)c1nn2c(C(F)(F)F)cc(-c3ccccc3)nc2c1Cl`, with 10.3%.

Consider `CC12CCC(C(=O)N(NC(=O)c3ccc(O)cc3)C1=O)C2(C)C` (centres undefined), for which the displacement was determined as 6.3%. Under `CCCCNC(=O)C(=O)NCCCOC(C)C` stands 5.1%; under `COc1ccc(C)cc1NC(=O)Cn1cnc2c1c(=O)n(C)c(=O)n2C`, 6.8%; under `O=C(O)CCC(=O)Nc1ccc(CC(=O)O)cc1`, 21.4%.

On to `C/C(=N/NC(=O)COc1cccc(Cl)c1)c1cccc([N+](=O)[O-])c1`, for which the displacement turned out to be 0.8%. With `COc1ccc(OC)c(/C=C2\SC(=S)N(CCC(=O)O)C2=O)c1`, the displacement was -9.2%. Then `O=C(O)c1c(NS(=O)(=O)c2ccccc2)sc2c1CCCC2`, with 9.9%; and `COC(=O)CN(c1cccc(Cl)c1)S(=O)(=O)c1ccc(C)cc1`, with 3.9%. Then `O=C(Cc1cccc2ccccc12)N/N=C/c1cccc(Br)c1`, with 3.9%. Under `C=CCN1C(=O)/C(=C\c2ccccc2)C(C(=O)OC)=C1C` stands -2.2%; under `N#Cc1ccc(NC(=S)Nc2ccccc2)cc1`, 15%; under `CC(=O)C(C1=NC(C)(C)Cc2cc(C)c(C)cc21)c1ccccc1` (centres undefined), 14.9%. As to `O=C1NC(=O)N(c2cccc(F)c2)C(=O)/C1=C/c1ccc(Oc2ccc([N+](=O)[O-])cn2)cc1`, the displacement was 13.1%. Then `COc1ccc(-c2cc(C(=O)NCc3ccccc3)c3ccccc3n2)cc1`, with 10.6%; and `COc1cccc(C(=O)Nc2cccc3nsnc23)c1`, with -2.4%. Then `COc1ccc(C2Nc3ccccc3C(=O)N2Cc2ccco2)cc1COc1ccccn1` (centres undefined), with 2.5%. Then `CCOc1cccc(=[O+]CC)c2c(C)oc(C)c12`, with 154%; and `O=C(Nc1ccc(-c2nc3ccccc3o2)c(O)c1)c1ccc(-c2ccccc2)cc1`, with 11%. With `CCOC(=O)/C(C#N)=N/Nc1ccc2c(c1)c1ccccc1n2CC`, the displacement worked out at 2.8%. Under `O=C(Cc1ccc(Cl)cc1)Nc1ccc(-c2nc3ccccc3[nH]2)cc1` stands 1.9%. Under `O=C1OC(c2ccccc2Cl)=N/C1=C\c1ccccc1C(F)(F)F` stands -11.5%; under `CCOC(=O)c1c(NC(=S)NC(=O)c2ccc([N+](=O)[O-])cc2)sc(C)c1C`, -2.1%; under `O=S(=O)(c1ccc(Cl)cc1)N1C(=S)SCC1c1ccccc1` (centres undefined), 4.2%.

`CN1CCN(C(=O)c2nn3c(C(F)(F)F)cc(-c4ccc(Cl)cc4)nc3c2Cl)CC1`: the displacement amounted to 8.5%. `COc1ccc(C2=N/C(=C/c3ccccc3F)C(=O)N2c2ccccc2)cc1`: the displacement amounted to 125%.

`CN1CCN(C(=O)CN2C(=O)/C(=C/c3ccccc3Cl)SC2=S)CC1`: the displacement amounted to 14.1%. Under `O=C(c1ccncc1)N1CCN(C(c2ccccc2)c2ccccc2)CC1` stands 5.9%; under `Cn1nnnc1SCC(=O)Nc1ccccc1`, 4.1%; under `COc1cc(NC(=O)C(=O)NCCN(C)C)c(OC)cc1Cl`, -10.4%.

`Cc1ccc(N2C(=O)C3C4CCC(O4)C3C2=O)nc1` (centres undefined): the displacement is 17.4%. Under `Nc1nonc1C(=O)N/N=C/c1cccc(OCC(=O)O)c1` stands -7.7%. Under `Cn1c(=O)c2c(nc(Oc3cccc(/C=N/NC(N)=S)c3)n2C)n(C)c1=O` stands -4.7%. Under `Cc1ccc(-c2cc(C(F)(F)F)n3nc(C(=O)N4CCCc5ccccc54)cc3n2)cc1` stands 16.4%. In the case of `Cc1ccc(/C=C2\SC(=S)N(C(Cc3ccccc3)C(=O)O)C2=O)cc1` (centres undefined), the displacement was determined as 11.8%. Under `Cc1ccc(OCC(=O)Nc2ccc(C)cc2[N+](=O)[O-])cc1` stands 10.3%.

On to `CC(=O)Nc1ccc(C(=O)NC2=NCCS2)cc1`, for which the displacement was -10.7%. As to `COc1ccc(O)c(/C=N/NC(=O)CSc2ccc3ccccc3n2)c1`, the displacement is -7.5%. Then `O=S1(=O)CCC(NC(=S)N/N=C/c2ccc(-c3ccc(Br)cc3)o2)C1` (centres undefined), with 4%; and `CC(=O)NC1=NC(=O)/C(=C\C=Cc2ccccc2)S1`, with -42.4%; and `CC(=NC#N)C1=C(O)c2ccccc2C1=O`, with -5.3%.

Regarding `Cc1cccc(NC(=O)c2c(Cl)cccc2Cl)n1`, the displacement is -1.7%. As to `O=C(NC(=S)Nc1ccc2oc(-c3cccnc3)nc2c1)c1ccc(Cl)cc1`, the displacement was -1.3%. Then `O=C(NNS(=O)(=O)c1ccc(Br)cc1)[C@H]1C[C@H]1c1ccccc1`, with -5.9%. Under `O=C(Nc1ccccc1O)c1ccc2c(c1)C(=O)N(c1ccc(Cl)cc1)C2=O` stands 7.5%. Then `COC(=O)NNC(=O)c1cc(OC)c(OC)c(OC)c1`, with -8%. `CC1(c2ccccc2)CC(C)(C)N(C(=O)CSC2=NCCS2)c2ccccc21` (centres undefined): the displacement was determined as 6.6%.

With `COc1ccc(Cl)cc1NC(=O)c1cccc(F)c1`, the displacement was -13.8%.

Take `Cc1ccc2nc(NC(=O)CSc3ncn[nH]3)sc2c1`: the displacement is -26%. Then `Cc1c(Cl)c([N+](=O)[O-])nn1CC(=O)N1CCCC1`, with 0.4%; and `COc1cc(F)ccc1S(=O)(=O)N1CCCCCC1`, with -4%; and `O=C(O)C1C2CCC(O2)C1C(=O)NCc1ccc(F)cc1` (centres undefined), with 11.2%. Under `O=C(Cc1ccccc1)N1CCN(S(=O)(=O)c2ccc(Cl)cc2)CC1` stands -7.4%; under `Cc1cc(C)c2oc(-c3ccc(NC(=O)c4ccccc4[N+](=O)[O-])cc3)nc2c1`, 16.3%. Under `CCOC(=O)c1ccccc1NC(=O)CSC(N)=O` stands 16.7%. In the case of `COc1cc(NS(=O)(=O)c2ccc(NC(=O)c3ccc(-c4ccccc4)cc3)cc2)ncn1`, the displacement was 6.5%.

In the case of `COc1ccccc1/C=C/C(=O)c1ccc(Br)cc1`, the displacement is -7%. Under `CC(=O)N1c2ccccc2Nc2ccccc21` stands 8.1%; under `O=C(O)c1c[nH]c2cc(N3CCOCC3)c(F)cc2c1=O`, -0.4%; under `O=C(Cc1ccc([N+](=O)[O-])cc1)N1c2ccccc2Sc2ccccc21`, 3.2%.

Consider `Cc1ccc(C2=Nc3ccccc3Nc3c2cc([N+](=O)[O-])cc3[N+](=O)[O-])cc1`, for which the displacement was -6.9%. Then `CC(=O)c1ccc(N2C(=O)c3ccc(Oc4ccc5c(c4)C(=O)N(c4ccc(C(C)=O)cc4)C5=O)cc3C2=O)cc1`, with -2.7%; and `COC(=O)c1ccccc1NC(=O)c1nn(C)cc1[N+](=O)[O-]`, with -8.1%; and `O=C(COc1ccc([N+](=O)[O-])cc1)Nc1ccc2nn(-c3ccccc3)nc2c1`, with 15.1%. Under `CC(CC(=O)Nc1ccc(Br)cc1)c1ccccc1` (centres undefined) stands 11.4%; under `O=C(NCCNc1ccc([N+](=O)[O-])cc1Cl)c1ccccc1F`, 11.6%. In the case of `COc1ccc(/C=C2/NC(=S)NC2=O)cc1OCc1ccccc1`, the displacement is -1.2%. Regarding `COC(=O)C1=CNC=C(C(=O)OC)C1c1ccccc1C`, the displacement is 6.5%.

For the origin of these results see PubChem BioAssay AID1240 (Sanford-Burnham Center for Chemical Genomics, 2008).
